One may read the % Inhibition as the drop in the measured response relative to a control, in per cent.

Out of some 150,000 compounds screened, about 540 (0.36%) showed an effect of 50% or more. The list shows a part of the results.

The assay deals with Plasmodium falciparum. Put plainly: Primary screen in NF54 nanoGlo assay, in single point, at 2uM, 72h; a lower Z score goes with more inhibition. In kind it is functional, Erythrocyte. Conditions: timepoint 72 hour.
As for `N#Cc1cccc(C(=O)N2C[C@@H]3CC[C@H]2CN(C(=O)C2CCC2)C3)c1`, the “% Inhibition” value is 0% and the Z score is given as 0.02.
As to `c1ccc(-c2nc3c(c(N4Cc5ccccc5C4)n2)CCNC3)nc1`, the “% Inhibition” value is -4% and the Z score was 0.52.
For `CCc1ccc(-c2cn3c4ccccc4nc3n2CCN2CCCC2)cc1`, in that order: -46% and 5.35.
For `CC(C)Oc1ccc(C(=O)N[C@H]2C[C@@](C)(O)C2)c(Cl)c1`, in that order: -6% and 0.85.
The like results for `Cc1cnn(-c2ccc(-c3noc(C4C[C@H]5C[C@@H](N)[C@H]5C4)n3)cc2)c1` (stereo partly specified) were, in that order, 6% and -1.1.
Turning to `c1ccc2oc(-c3ccn(Cc4nc(CC5CC5)no4)n3)cc2c1`, the “% Inhibition” value is on record as -4% and the Z score was 0.79.
The like results for `CC1CC(C)CC(C(=O)NCC2(NC(=O)Cc3ccco3)CCCCC2)C1` (stereo unspecified) were, in that order, -12% and 2.32.
For `CCN1C[C@@H](CN(C)Cc2nc(C3(c4ccc(C)cc4)CCCC3)no2)CC1=O`, in that order: 5% and -0.95.
For `COc1cc(C(=O)N2CCC(C(=O)N3CCCCCC3)CC2)cc(OC)c1OCc1ccccc1`, in that order: -10% and 1.35.
Take `O=C(Cc1ccsc1)NC[C@H](O)c1ccc(-c2ccsc2)s1`: the “% Inhibition” value is on record as 6% and the Z score is given as -0.81.
The like results for `COc1ccc(C(=O)N2CC(N3CCCC3)C2)cc1F` were, in that order, -9% and 1.08.
The like results for `NC(=O)c1nc(-c2ccccc2)n2c1CCN(C(=O)Cn1cccn1)CC2` were, in that order, -8% and 1.06.
The like results for `CCN(C(=O)c1cncn1C)[C@@H](C)Cc1ccsc1` were, in that order, 0% and 0.04.
With `CC[C@H](NC(=O)c1cccnc1OC)C1CCOCC1`, the “% Inhibition” value is recorded as -4% and the Z score is listed as 0.85.
The like results for `O=C(c1ccncc1)N1CC[C@H]2[C@@H](CCCN2Cc2cc(F)c(F)c(F)c2)C1` were, in that order, 2% and -0.23.
For `COc1ccc(-c2nnc(-c3ccc(-n4ccnc4)nc3)o2)cc1F`, in that order: -16% and 1.88.
For `CCc1cnc(C)nc1N1CCC(NCCCc2ccc(Cl)cc2)CC1`, the “% Inhibition” value is listed as -17% and the Z score was determined as 2.16.
The like results for `COc1ccccc1CNC(=O)c1cnn(-c2ncccc2-c2nc(C)no2)c1C` were, in that order, -10% and 1.64.
For `Cc1cc(-c2ccc(C(=O)N(C)C[C@H]3CCCCN3C)cc2)cs1`, the “% Inhibition” value was -14% and the Z score is 1.38.
The like results for `CCc1cc(CC)n(C[C@H](O)C2(O)CCC2)n1` were, in that order, 4% and -0.69.
`O=C(Nc1ccccc1)c1cccc(CN2CCc3ccccc3C2)c1`: the “% Inhibition” value is given as -4% and the Z score was 0.61.
For the compound `O=C(CN1CCOC2CCCCC21)c1c[nH]c2ccccc12` (stereo unspecified), the “% Inhibition” value was -13% and the Z score is 1.79.
For `CC(C)CN1CCN(C(=O)[C@H](C)c2ccc(Cl)s2)CC1=O`, in that order: -9% and 1.69.
For `O=C(O)c1cc(C2CCN(C(=O)c3cccc4c3CCC4)CC2)no1`, in that order: 2% and -0.35.
As to `CC(=O)Nc1c(C)ccc(NCCCOCCc2ccccc2)c1C`, the “% Inhibition” value came to 34% and the Z score was -3.8.
The like results for `Cc1nn(C)c(C)c1S(=O)(=O)N1CCC[C@H](C(=O)N2CCCn3nc(-c4ccc(F)cc4)cc3C2)C1` were, in that order, 7% and -1.17.
For `COc1cc(-c2nc(=O)c(CCC(=O)NCC(C)C)n[nH]2)ccc1OCC1CCC1`, in that order: 9% and -1.15.
For `Cc1cnccc1CCNC(=O)NC1(C(F)(F)F)CCC1`, in that order: -17% and 3.15.
Turning to `Cc1cc(-c2c(-c3ccccc3)ncn2CCc2ccc(O)cc2)[nH]n1`, the “% Inhibition” value is 8% and the Z score was -1.12.
The like results for `Cc1ccc(CNC(=O)CN2C(=O)CCCc3cc(S(=O)(=O)N4CCCC4)ccc32)cc1` were, in that order, -2% and 0.27.
For `O=C(Cn1cc(C(F)(F)F)ccc1=O)N1CCc2ccccc21`, the “% Inhibition” value is reported as -13% and the Z score worked out at 2.5.
The like results for `Cn1ncc2c(=O)[nH]c(CN3CCN(CC(F)F)CC3)nc21` were, in that order, 3% and -0.31.
For `Cc1ncn(C)c1C(=O)NCc1ccc(N2CCCC2=O)cc1`, in that order: -6% and 1.09.
For `O=C(O)c1ccc(N2C(=O)[C@H]3CCCC[C@H]3C2=O)cc1`, in that order: -1% and 0.07.
As for `Cc1c(F)cccc1CN1CC[C@H](N2CCN(C)CC2)[C@H](CCCO)C1`, the “% Inhibition” value was -2% and the Z score is 0.52.
The like results for `COc1ccc(CNC(=O)c2ccc(Cl)c(N3C(=O)CCS3(=O)=O)c2)cc1` were, in that order, -9% and 1.09.
In the case of `Cc1cc(C(F)(F)F)n(C[C@@H](C)Cn2cc(-c3cncnc3)nn2)n1`, the “% Inhibition” value is given as -6% and the Z score is 0.77.
For `Cc1cc(C)nc(O[C@H]2CCN(C(=O)c3ccc4[nH]cnc4c3)C2)n1`, in that order: -14% and 2.15.
For `Cc1cc(C(=O)N2CCO[C@H](C(F)F)C2)c(C)n1C1CC1`, in that order: -12% and 1.39.
`C[C@@H]1CN(C(=O)c2ccc(Cl)c(Cl)c2)CC[C@@]1(O)C1CCOCC1`: the “% Inhibition” value is recorded as -6% and the Z score was 1.23.
For `O=C(NC1CCN(c2ccc(-c3cccc(F)c3)nn2)CC1)c1ccccn1`, in that order: 15% and -1.71.
For `O=S(=O)(c1ccc2c(c1)CCCC2)N1CCCN(c2nc3cccnc3s2)CC1`, in that order: -25% and 2.48.
For `Cc1nc2cc(NC(=O)C3=NNC(=O)CC3)ccc2o1`, in that order: 9% and -1.38.
Regarding `COCC[C@]1(NC(=O)c2ccc(F)cc2)CCN(Cc2ccc(C(C)C)cc2)C1`, the “% Inhibition” value is recorded as -12% and the Z score came to 1.56.
For `CCCCS(=O)(=O)NCc1csc(-c2ccn(C)n2)n1`, in that order: -6% and 0.69.
The like results for `Cc1cccnc1N1CCN(C(=O)C[C@@H]2NC(=O)NC2=O)CC1` were, in that order, 3% and -0.63.
For `COc1nc(C)c(C(=O)N2C[C@@H](C)[C@@](C)(O)C2)s1`, in that order: -2% and 0.3.
Consider `CCCCn1nc(CC(C)C)nc1Cc1ccncc1`, for which the “% Inhibition” value is recorded as -7% and the Z score came out at 0.94.
For `Cc1ccc([C@@H]2CCCCN2CCn2cccn2)o1`, in that order: -12% and 1.78.
For `COC(=O)NCC1CCN(C(=O)OC)CC1`, in that order: -7% and 1.11.
For `O=C1N[C@@H](c2cnn(Cc3ccccc3)c2)Nc2ccccc21`, in that order: 0% and 0.02.
As for `Cc1cc(O[C@H]2CCN(C(=O)NCCc3ccccc3)C2)nc(C)n1`, the “% Inhibition” value was determined as 2% and the Z score is reported as -0.36.
Take `CS(=O)(=O)N1CCN(C(=O)c2cc(=O)[nH]c3cc(F)ccc23)CC1`: the “% Inhibition” value is recorded as -9% and the Z score was 1.01.

Values taken from ChEMBL document CHEMBL4888484, “Replenishing the malaria drug discovery pipeline: Screening and hit evaluation of the MMV Hit Generation Library 1 (HGL1) against asexual blood stage Plasmodium falciparum ,using a nano luciferase reporter read-out” (2022).
